Read counts are not given, so values of variants with three or more changes are uncertain.
B1: LINE1-full (parent)
chain: UACGUAGGUGGUUUUCCCCUGAUAGUGCUAAGGGGGCCUGGAAGUUUGGACUGGGCAGAGCUCAACACAGCGUGGCAAAGUGGCUGUGGCUAGACUGCCUCUCUGGAUUCCUCGUCACUCAGCAGGGCAUCUCUGAGAGAAAUGCC

Variants of: B1
Assay: self-cleavage, relative activity (ratio to wild type); higher = more cleavage; in vitro, sequencing; the parent is a self-cleaving ribozyme

Variant | self-cleavage
A65U G105U U115C G127A | 0.22
A67U U96A A129U | 0.03
A67G G126A A136G | 0.59
U73C A78G G83U U108A A129G C146A | 1.75
A67G U100C U112C | 0
U73C C103A A129G | 0.57
A65G U104A U130C | 0
A67C U81C A138G | 0.16
A67G U81C U112C | 0
A69U U73A U102C | 0.06
A67G G82A A142G | 0.74
C68U U112C C128U | 0.13
A69G A117G C133U | 0
A67U U81C U115C A141G | 0
A65G U115C A140G | 0.08
C68A G72A C99U U100C | 0.04
A67G A77U U100C | 0.83
A65U U85A U132C A140G | 0.03
A67G U85C U143A | 0.27
A69U U73G U91C | 0.23
U73C A79U U81C | 1.66
C66U U96C A129G | 0.06
A65G C131U U134C | 0.16
G74U A92G U108C A124U | 0.14

Variant | self-cleavage
A69G A117G A138G A140G | 1.84
C71U U91A A117G | 0.48
A64U U100C U143C | 0.56
U73C U130C A142G | 0.71
A65G U115A G127A U132C A141G | 0.04
A69G A77G A79G A117U A141G | 0.84
A65G A77G U109C U112C C123U | 0
A65U A67G A77U C84U | 0.06
A65C U81A C145U | 0.01
A65G U73A U96C A124G | 0
A67U C71U U96A | 0.02
C68A A69U A78U A107G A124G A138G | 0.01
A69G U104A A138U | 0
U73A U96A U102A A142G | 0.02
A67G A69G G127A | 0.06
A69U A78U U108G | 0.08
U73C A78U U134C | 2.14
C71U U87C U96C G122C | 0
A65G G82A U112A | 0.05
A69G A124G C128U | 0.09
G70A A77G C84A U100C | 0.34
G72U C111U U112C | 1.34
A69G U87C U108C | 0
U73A C120U A141G | 1.84

Variant | self-cleavage
A65U U96A C103U G135A A140U | 0.08
A65G G72A A92G C131U | 0.08
U73A U96A U134C | 0.02
A67G U85C A136G | 0
A65U U108C A138G A142C | 0.05
A69U U81A U104A A142G | 0
A69G C90U A136G | 0.03
A69U A92U A136G | 0.04
A69U U85C C113U | 0
C71A C84A U96C | 0.03
A65C C71U U87C | 0
C71A A78G G93A A140G | 0.03
A67U A107G U109C U134A | 0.11
A65U A107C U115A | 0.21
C66U U87A U91C A142G | 0.01
A69G A124U U130G U134C | 1.53
A69U A124G U130C U134C | 0
A65G U109A A141U | 0
A65G A78G U100A A140G | 0
A67U U115A A142G | 0.04
C71U U102C U104G | 0.18
A69G G82A A138G | 0.63
A69G U132C A138G | 0.67
G74A U100C U104A | 1.37

Variant | self-cleavage
A65C A79G U108C U134C | 0
U73A U112A U134C | 2.43
U73C U87C C101U U102C | 0
A65C U81C A121U G127C U132C | 0
C68U A77G A124C | 0.2
A67G U112A A140G | 1.26
U73A U108C A140U | 2.19
G74U U115C A142U | 2.4
A69U U130C A142U G144A | 0.39
A65U A78G C116U | 0.12
A69U A79U U102C | 0
C68U A107G U108A | 0.11
A69G A129C A141G | 0.74
A69G U102C A142G | 0
C68U G70A U104A | 0.11
C66U A69U A121G | 0.05
A65G A136G A142G | 0
G74A U109C U143A | 0.65
U73G U81A A142G | 1.92
G74A A78G U96C U109A | 0.05
G70C U91C A140G | 0.02
G72A A129G A138G | 1.96
G74A A107G A136G C146U | 0.88
U73A U119A A138G | 1.36

Variant | self-cleavage
A69U U96A U100C A142U | 0.04
A65G U96C C99U U115C | 0.32
A69G A78G U91A U102A | 0.15
G74A A77G U100C U108C | 2.19
A67G C110A U130C | 0.25
A65C A136U A141G | 0.02
U73C U104C G105U | 2.04
G74A U91C U134C | 0.44
C68U A107U U108C | 0.09
A67G U108C U119C | 0
A69G A78G U109C | 0
A67U A107U A138U | 0.09
A67C A78G U104A | 0
A65G U81A U102C | 0.05
A65U C71U A141G | 0.1
U73C U102C U134G | 2.3
A69G U108C G144A | 1.95
A65G U73A U104C A142G | 0
U73A A140G A142G | 1
A69G U112C A141G | 0.42
C71A U87A U134A | 0.02
A69U G72A A92U U104A U130C | 0.02
G72A U85C A140G | 0.05
A65G U85C U134A | 0.12

Variant | self-cleavage
A67G G106A G114U | 0.51
A67G U81A U96C U109C | 0
U73C C84A U119C A124C | 0.47
A65G G89U U108C | 0.02
G74A U87A A136G U143C | 0.06
G74A U96C A121G A124G | 0.08
U73A U115C A141G | 1.96
A69G A107G A136U | 0.71
A67G G72A G114A | 0.35
U73A U81A U134C | 0.47
G75A A129U A136G | 0.97
A69G A79G A136U | 1.75
U73C U85C A136G | 0
A69G C99U U115A | 0.2
C71A U108C U115C | 0.82
A67G G75A U102A A124G | 0.37
C66U U91C U132A A140G | 0.03
G74A U87C A142G | 0.1
A67G U73A A107G | 0.22
C71U A77U U132C | 0
C71U A117G A138G | 1.13
A69G A92G A94G C113U A129G | 0
U73C U100A U104A | 1.83
A65G U85C U132C | 0

Variant | self-cleavage
A67G U73A U102A | 0.18
A69G U115A A142G | 0.32
U73C A94U G114A | 0.37
A64U U73G U87A A107G A117U | 0.01
A65G A69U U119C A136U A140G | 0.07
A69U U109A A142G | 0.05
A67G U81C G127C | 1.23
A69U C84U A140G | 0.01
A67G A69U U96C | 0.05
A67G A77G G82A | 1.18
G70U U104C A117G A124G | 0
A64U U109A A121U | 0.37
A67G U96C U108C | 0
A67U U102C A124G | 0
A67G U96A A142G | 0.06
G74A A78G A136G | 1.21
G74A A77U A94G A107G | 0.07
A69G A78G U85C | 2.63
U73C U81C U85C | 0.35
G70A G122A U134C A142G | 0.36
A69U A78C U87C | 0
A69G U115G A141G | 0.82
A65C U96A A124G | 0

Reference: the RNAGym collection of RNA variant scans (doi:10.7554/elife.90254)
